The other results are listed elsewhere or left out.
Target: T1, OsWOX13 (Oryza sativa, UniProt Q5QMM3 1-267)
T1 sequence: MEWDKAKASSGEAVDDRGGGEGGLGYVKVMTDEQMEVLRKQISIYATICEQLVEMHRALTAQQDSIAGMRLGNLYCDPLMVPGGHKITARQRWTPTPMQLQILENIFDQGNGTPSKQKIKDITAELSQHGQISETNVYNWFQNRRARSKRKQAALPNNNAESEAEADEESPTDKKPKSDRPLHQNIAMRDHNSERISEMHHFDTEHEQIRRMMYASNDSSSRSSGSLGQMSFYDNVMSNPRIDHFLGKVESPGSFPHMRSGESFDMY
Experiment: protein-binding microarray (RPBM); PBS, 2% BSA, 51.3 ng/ul salmon testes DNA, 50 uM zinc acetate, 200 nM TF, 25 C, 1 h; high values mean tight binding
Conditions: protein: recombinant; tags: N-terminal polyhistidine and DsRed monomer fusion (pET32a); label: CyDye5-dUTP incorporated in the synthesized complementary strand; 3' TTTTT single-stranded linker to array surface; dsDNA, one strand shown
How it was run: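 The binding signal is fluorescence intensity per array feature (arbitrary units). Readings came from an Axon 4000B scanner after a washed, 2% BSA-blocked, double-stranded custom Agilent array had been incubated for 1 h at 25 °C with 200 nM protein and 50 µM zinc acetate. The protein was a Ni–NTA-purified transcription factor fused N-terminally to polyhistidine and DsRed, expressed in E. coli BL21-CodonPlus.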

**Q.** Which binding signal does the source give for “AAACTAATTTCATAAATTAGAGCTAATTCGTGAGACGAATCGGAGTCACCTAGTGCAG” here?
**A.** 18900 fluorescence intensity (a.u.)

**Q.** How did the binding signal turn out when “GTATATAATTTGTTGTGACATAATTGGATGATAGAAATATCGGAGTCACCTAGTGCAG” was run?
**A.** 40600 fluorescence intensity (a.u.)

**Q.** Which binding signal does the source give for “CCACAAATTAATCCCTCATGCTCTTGGCATTTACCCACCACGGAGTCACCTAGTGCAG” here?
**A.** 6800 fluorescence intensity (a.u.)

**Q.** “CTTGATTCGTCATCAAATGTTCTTTAAGCATGACATAAATCGGAGTCACCTAGTGCAG” was tested. Which binding signal did it give?
**A.** 6860 fluorescence intensity (a.u.)

**Q.** With “GATATGTCCTCCTCCTACGTGGCTATATCCTTATTCTGGTCGGAGTCACCTAGTGCAG” as the sequence, how does the binding signal read?
**A.** 7970 fluorescence intensity (a.u.)

**Q.** “ATTCCCCTATTAATTTATGTAATAACATCTCCTTTAGAGCCGGAGTCACCTAGTGCAG” was tested. Which binding signal did it give?
**A.** 8440 fluorescence intensity (a.u.)

**Q.** With “TGTTAATTTGAAATTTGGAAGATGTAATTAACTGTTGCCACGGAGTCACCTAGTGCAG” as the sequence, how does the binding signal read?
**A.** 46900 fluorescence intensity (a.u.)

**Q.** How did the binding signal turn out when “AGGGAGTGGGGATCCGCACGAGTGGAAGCGGAGCCACGCTCGGAGTCACCTAGTGCAG” was run?
**A.** 5130 fluorescence intensity (a.u.)

**Q.** For “CAGAAATTAATGGTCAAATTTAGTCTTAAAGTCATTTCTACGGAGTCACCTAGTGCAG”, which binding signal is on record?
**A.** 6670 fluorescence intensity (a.u.)

**Q.** How did the binding signal turn out when “TCATAATTATTGTTTTGACTATAGCGTTTGGATATAGGTACGGAGTCACCTAGTGCAG” was run?
**A.** 24400 fluorescence intensity (a.u.)

**Q.** With “GTAGAGGGATTGAGATAGATGATGACAGAGAGGGTCGGACCGGAGTCACCTAGTGCAG” as the sequence, how does the binding signal read?
**A.** 3430 fluorescence intensity (a.u.)

**Q.** With “CTCGAGTCCACGCTCCCATCGCCCTCCGCCTCGCCTCGCTCGGAGTCACCTAGTGCAG” as the sequence, how does the binding signal read?
**A.** 45900 fluorescence intensity (a.u.)

**Q.** With “TCAAATTGTGACAGAGATGTGTGGTTTTGTTACCATCCTTCGGAGTCACCTAGTGCAG” as the sequence, how does the binding signal read?
**A.** 18200 fluorescence intensity (a.u.)

**Q.** For “TTAATGATTTAAACTCAATTATTTATATATTAATAGCTCTCGGAGTCACCTAGTGCAG”, which binding signal is on record?
**A.** 38300 fluorescence intensity (a.u.)

**Q.** “TGCAAATAGATAAATACCATGTGTTTCATTTTACATTGTTCGGAGTCACCTAGTGCAG” was tested. Which binding signal did it give?
**A.** 4780 fluorescence intensity (a.u.)

**Q.** With “TCGGCGGATTGACAGGTGGAAAAGGCTGACTTCAAGTTTTCGGAGTCACCTAGTGCAG” as the sequence, how does the binding signal read?
**A.** 30200 fluorescence intensity (a.u.)

**Q.** Which binding signal does the source give for “AGTAATTATTTAAATAATAAATTAATCATTAAATGATCTTCGGAGTCACCTAGTGCAG” here?
**A.** 27600 fluorescence intensity (a.u.)

**Q.** “CAAAGATTAGGTTCAAATTTATACTATGTTTTAACTAGGGCGGAGTCACCTAGTGCAG” was tested. Which binding signal did it give?
**A.** 17100 fluorescence intensity (a.u.)

**Q.** For “ATGTTTACAGAGTGATTTAATCATCATGATATATCTTGTTCGGAGTCACCTAGTGCAG”, which binding signal is on record?
**A.** 8940 fluorescence intensity (a.u.)

**Q.** With “AACAAATTACAGATTCCACCTATAAACTGCGAGACGGATTCGGAGTCACCTAGTGCAG” as the sequence, how does the binding signal read?
**A.** 14700 fluorescence intensity (a.u.)

**Q.** With “TGGTCTAATAAAATAATTAAAGATCTGATTTTCTACTCCTCGGAGTCACCTAGTGCAG” as the sequence, how does the binding signal read?
**A.** 4320 fluorescence intensity (a.u.)

**Q.** With “ATTTGATTATAATGAATCCAACTACATAATTTATTCATAGCGGAGTCACCTAGTGCAG” as the sequence, how does the binding signal read?
**A.** 35600 fluorescence intensity (a.u.)

**Q.** How did the binding signal turn out when “TGTTGTGATTTGAGAATGATTATGTTGTTGTGGATGATTTCGGAGTCACCTAGTGCAG” was run?
**A.** 40100 fluorescence intensity (a.u.)

**Q.** How did the binding signal turn out when “CAACTGATAATTGCAAGAACTGATTAGTGCACAGTGGATTCGGAGTCACCTAGTGCAG” was run?
**A.** 28000 fluorescence intensity (a.u.)

**Q.** Which binding signal does the source give for “CTTAATTAGGATTCACAGCTCTTAAACGAAGAAGTAGTACCGGAGTCACCTAGTGCAG” here?
**A.** 35300 fluorescence intensity (a.u.)

**Q.** How did the binding signal turn out when “ATTAAACAAAGTGCAAATGATTGACTAATAAGAGCCCAATCGGAGTCACCTAGTGCAG” was run?
**A.** 23300 fluorescence intensity (a.u.)

**Q.** Which binding signal does the source give for “GGGTGTGTAAGGGTAGGTGGAGGGGTGGGTGATGCGAGATCGGAGTCACCTAGTGCAG” here?
**A.** 4470 fluorescence intensity (a.u.)

**Q.** How did the binding signal turn out when “GTTGGCCTATTTGGAAAGGCTCTTCCCTTGCTGTGTCATCCGGAGTCACCTAGTGCAG” was run?
**A.** 10100 fluorescence intensity (a.u.)

**Q.** “TTGATGTGATGGAAAAGCTAGAAGTTTCAAGAGAAAGTTGCGGAGTCACCTAGTGCAG” was tested. Which binding signal did it give?
**A.** 11000 fluorescence intensity (a.u.)

**Q.** How did the binding signal turn out when “ACTTAATTAATTACGTGTTAATGGACTGCTCCGTTTTCCGCGGAGTCACCTAGTGCAG” was run?
**A.** 65500 fluorescence intensity (a.u.)

**Q.** “GAAATTAATTTTAATAGTGTTTTCATATTATTTCCATGCGCGGAGTCACCTAGTGCAG” was tested. Which binding signal did it give?
**A.** 46500 fluorescence intensity (a.u.)

**Q.** Which binding signal does the source give for “AGAGGCATGATTGCTCGTTATTTGTTGTTATTCAACAAGGCGGAGTCACCTAGTGCAG” here?
**A.** 29000 fluorescence intensity (a.u.)

**Q.** Which binding signal does the source give for “TTTCTTACTAAATAAATAATTGCAACGCACTGATATTTTGCGGAGTCACCTAGTGCAG” here?
**A.** 3230 fluorescence intensity (a.u.)

**Q.** For “GCCCAATTATTACTCCTCCACTACTACTCCTCCACCCGCGCGGAGTCACCTAGTGCAG”, which binding signal is on record?
**A.** 5920 fluorescence intensity (a.u.)

**Q.** How did the binding signal turn out when “CTTGTTGTAATGGGAAACGTGATTACAGATAGCGGGCCCACGGAGTCACCTAGTGCAG” was run?
**A.** 10300 fluorescence intensity (a.u.)

**Q.** With “CTTAACGGCCCATTTATCTTGTCTCTCTGGCCCACCTGCACGGAGTCACCTAGTGCAG” as the sequence, how does the binding signal read?
**A.** 4020 fluorescence intensity (a.u.)

**Q.** With “GGGGAGGATTGGAACTTTGCTACTTTCCAAATTTCCCCTTCGGAGTCACCTAGTGCAG” as the sequence, how does the binding signal read?
**A.** 4740 fluorescence intensity (a.u.)

**Q.** With “CTTGATAATTACTCTTACGTCCCTCACCCTATGTTCCTGTCGGAGTCACCTAGTGCAG” as the sequence, how does the binding signal read?
**A.** 24100 fluorescence intensity (a.u.)

**Q.** With “GGGATTGAAATCCTCCAGTTTTCCCACAAATTTCGTACAACGGAGTCACCTAGTGCAG” as the sequence, how does the binding signal read?
**A.** 18600 fluorescence intensity (a.u.)

**Q.** For “CTAACCAAGATTAATTTCTATTGGTACAATGGCATGTAATCGGAGTCACCTAGTGCAG”, which binding signal is on record?
**A.** 4210 fluorescence intensity (a.u.)

**Q.** How did the binding signal turn out when “GGCTTCCTTAATTGTACATGTCTCTCTTCATTCTGCTGCACGGAGTCACCTAGTGCAG” was run?
**A.** 5930 fluorescence intensity (a.u.)

**Q.** Which binding signal does the source give for “ATAGATTTAGAAATAAGTGTTGACATAAACATTTAGGTATCGGAGTCACCTAGTGCAG” here?
**A.** 4640 fluorescence intensity (a.u.)

— PMC7819943, “Rice protein-binding microarrays: a tool to detect cis-acting elements near promoter regions in rice”
